Results published in PubChem BioAssay AID686971 (National Center for Advancing Translational Sciences (NCATS), 2013).
Hit rate of the full screen: of about 360,000 compounds, about 7,500 (2.1%) were called active. Inconclusive results, whose numbers are uncertain, are shown with a selection of clear calls. Calls follow the shape of the dose curve; as a rule, active = well fitted cell-killing curve with a large enough effect; inconclusive = small, poorly fitted or top-dose-only effect, or effect the other way, or another doubt; inactive = no such curve, though single readings can be large or run the other way. No potency is given beside an inconclusive call; the fits are too rough.
Potency is read from the fitted curve at half-maximal effect; tags tell the direction and shape of the fitted curve.

Experiment: qHTS for induction of synthetic lethality in tumor cells producing 2HG: qHTS for the HT-1080-IDH1KD cell line;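 as to activity, negative = toxicity: 0% = DMSO wells and -100% = cell-free medium wells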
Settings: HT-1080 IDH1 knockdown viability, ATP luminescence, 48 h; activity, negative = toxicity: at 46.1 µM (top of the series) unless noted
Procedure, shortened: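 Viability of IDH1-knockdown HT-1080 fibrosarcoma cells was assessed by CellTiter-Glo after 48 h at 37 °C with titrated compound; concentration-effect curves were classified by fit quality and response size.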
With O=[N+]([O-])c1ccc(Sc2ncccn2)c([N+](=O)[O-])c1 the Potency was active: 13 µM.
In the case of COc1ncnc(-c2ccccc2)c1-c1ccccc1, the Potency is reported as “inactive”.
In the case of O=C(NC(c1ccc(Cl)cc1)c1ccsc1)C1CCN(Cc2cccc(Cl)c2)CC1 (configuration not stated), the Potency is reported as inconclusive [cytotoxic, single point].
For O=C(NC(=S)Nc1cccc2c(O)cccc12)c1ccccc1[N+](=O)[O-], the Potency was inconclusive [cytotoxic, partial curve].
In the case of CC(C)(C)NC(=O)CN(C(=O)C(=O)Nc1ccc2c(c1)OCCO2)C1CC1, the Potency is reported as inconclusive [rising, single point].
For COc1cc(-c2cn(S(=O)(=O)c3cccc4nsnc34)nc2N)cc(OC)c1OC, the Potency was inconclusive [cytotoxic, partial curve].
With CC(Oc1cccc2cccnc12)C(=O)N/N=C/c1ccc2c(c1)OCO2 (configuration not stated) the Potency was “inactive”.
In the case of COc1ccc(N(CC(=O)Nc2ccc3c(c2)OCCO3)S(=O)(=O)c2cccc(C)c2)cc1, the Potency is reported as “inactive”.
For Cc1ccc(OCCn2c(=O)cnc3ccccc32)cc1, the Potency was inconclusive [cytotoxic, single point].
For c1cncc(-c2nnc(C3CCCCC3)o2)c1, the Potency was “inactive”.
For CC12CCC(c3c(C(=O)Nc4nccs4)nn(-c4ccccc4)c31)C2(C)C (configuration not stated), the Potency was active: 14.1 µM.
For Cc1ccc2[nH]c3c(NCCCN4CCCC4=O)ncnc3c2c1, the Potency was inconclusive [cytotoxic, single point].
With CC(C)CCNC(=O)c1cc2c(=O)n3ccccc3nc2s1 the Potency was “inactive”.
In the case of CCOC(=O)C1=C(C)NC(=O)NC1c1cn(-c2ccccc2)nc1-c1cccs1 (configuration not stated), the Potency is reported as inconclusive [cytotoxic, single point].
With CC(Sc1cnccn1)C(=O)O (configuration not stated) the Potency was “inactive”.
In the case of CC(=O)Nc1ccc(S(=O)(=O)Nc2nc3ccccc3nc2Nc2ccc(N)cc2)cc1, the Potency is reported as “inactive”.
With Cc1cccc(CS(=O)(=O)c2ncc(CO)n2C)c1 the Potency was “inactive”.
In the case of CCCC1OC23CCCCC2C(C#N)(C(=N)O3)C1(C#N)C#N (configuration not stated), the Potency is reported as “inactive”.
For Cc1cc(Br)ccc1OCC(=O)NNC(=O)c1cnccn1, the Potency was inconclusive [cytotoxic, single point].
For O=C1C(Cc2ccccc2)Nc2ncnc(N3CCc4ccccc4C3)c2N1Cc1ccc(Cl)cc1 (configuration not stated), the Potency was inconclusive [cytotoxic, single point].
For O=C(Nc1ccc(Br)cc1)c1cccc(OC(=S)N2CCOCC2)c1, the Potency was inconclusive [cytotoxic, single point].
In the case of N=c1c(C(=O)NCc2ccc(F)cc2)cc2c(=O)n3ccccc3nc2n1Cc1ccco1, the Potency is reported as “inactive”.
For COc1ccc(S(=O)(=O)NCCC(=O)Nc2ccc(C)cc2)cc1, the Potency was “inactive”.
With COc1ccc(C(=O)NC(=S)NCCO)cc1Br the Potency was inconclusive [cytotoxic, single point].
For CCN(CC)S(=O)(=O)c1cccc(NC(=O)C2SC(=Nc3ccc(C)cc3C)C(C(=O)NC(C)COC)=C2N)c1 (configuration not stated), the Potency was inconclusive [cytotoxic, single point].
For O=C(CSc1nnnn1-c1cccnc1)Nc1ccc(OCc2ccccc2)cc1, the Potency was inconclusive [cytotoxic, single point].
For Cc1ccc2[nH]c(=O)c(CN(CCCN3CCOCC3)C(=O)NC3CCCCC3)cc2c1, the Potency was “inactive”.
For COCCOC(=O)c1sc(=S)n(CCOC)c1N, the Potency was inconclusive [cytotoxic, single point].
In the case of C=CCn1c(C)cc(C(=O)CSc2nc3ccccc3[nH]2)c1C, the Potency is reported as inconclusive [cytotoxic, single point].
With Cn1c(=O)[nH]c(=O)c2c1nc(CN1CCN(c3ccc(F)cc3)CC1)n2CCc1ccccc1 the Potency was “inactive”.
For Cc1cccc(Nc2nc(N)c([N+](=O)[O-])c(NCc3ccccc3)n2)c1, the Potency was active: 16.4 µM.
With COc1cc(C(=O)Nc2nnc(Cc3ccccc3)s2)cc(OC)c1OC the Potency was active: 10.3 µM.
In the case of Cc1ccc(-c2ccnc3nc(-n4cccc4)nn23)o1, the Potency is reported as inconclusive [cytotoxic, single point].
With Cc1ccc(S(=O)(=O)Nc2cc(C(C(=O)OC(C)C)C(=O)C(F)(F)F)c(O)c3ccccc23)c(C)c1 (configuration not stated) the activity, negative = toxicity was inconclusive: -28.4% [cytotoxic].
In the case of Cc1cc(C)c(-n2c(C)cc(/C=C3/NC(=O)NC3=O)c2C)c(C)c1, the Potency is reported as inconclusive [cytotoxic, single point].
With COc1ccccc1NC(=O)Cc1noc(CSc2nnc(C)s2)n1 the Potency was “inactive”.
For COc1ccc(-c2c(-c3ccccc3OC)sc3ccccc23)cc1C=O, the Potency was inconclusive [cytotoxic, single point].
In the case of Cc1ccc(C)c(N2CCN(C(=O)c3cc4sccc4n3C)CC2)c1, the Potency is reported as inconclusive [cytotoxic, single point].
With CCc1ccc(OCC(=O)Nc2ccc(-c3cc4ccccc4oc3=O)c(OC)c2)cc1 the Potency was inconclusive [cytotoxic, partial curve].
In the case of Cn1c(SCC(=O)N2CCOCC2)nc(O)cc1=O, the Potency is reported as “inactive”.
With CC(C)COc1ccc(C(=O)OCC(=O)N(C)CC(=O)Nc2ccc(F)cc2)cc1 the Potency was inconclusive [cytotoxic, partial curve].
In the case of O=C(CNc1cccc2ccccc12)N/N=C/c1ccc([N+](=O)[O-])o1, the Potency is reported as inconclusive [cytotoxic, single point].
For Cc1cccc(N(Cc2ccccc2)C(=O)c2cccc(S(=O)(=O)N3CC(C)OC(C)C3)c2)c1 (configuration not stated), the Potency was inconclusive [cytotoxic, single point].
For Cc1cccc(-n2nc([N+](=O)[O-])c(=NCc3cccnc3)n2O)c1, the Potency was inconclusive [cytotoxic, single point].
For COc1cccc(/C=N/NC(=O)COc2cccc3cccnc23)c1O, the Potency was active: 18.4 µM.
For O=C(CSC1=NS(=O)(=O)c2cc(Cl)ccc2N1)Nc1ccccc1F, the Potency was “inactive”.
For Cn1c(NCc2ccco2)nc2c1c(=O)n(Cc1ccc(Br)cc1)c(=O)n2C, the Potency was “inactive”.
With Cc1ccc2[nH]c(=O)c3cc(C(=O)N(C)C4CCCCC4)sc3c2c1 the Potency was “inactive”.
In the case of CCOC(=O)c1ccc(Nc2nc(C)cc(C)n2)cc1, the Potency is reported as “inactive”.
In the case of COc1ccc(-c2c[n+](CC(=O)c3ccccc3)c3n2CCCCC3)cc1, the Potency is reported as inconclusive [cytotoxic, single point].
With Cc1nc(-c2ccccc2)nc2[nH]c(C(C)C)cc(=O)c12 the Potency was “inactive”.
With O=C(CSc1ccc(Cl)cc1)c1ccco1 the Potency was “inactive”.
For Cc1nn(C)c(Cl)c1S(=O)(=O)N1CCC(CO)(CCc2ccccc2)CC1, the activity, negative = toxicity was inconclusive: -30.6% [cytotoxic].
For N#Cc1cccc2c1-c1ccccc1/C2=N/NC(N)=O, the Potency was inconclusive [cytotoxic, single point].
With c1ccc2nc(-c3nc4ccccc4o3)ccc2c1 the Potency was active: 12.6 µM.
In the case of COc1cc(S(=O)(=O)N2CCN=C2c2ccccc2)ccc1F, the Potency is reported as inconclusive [cytotoxic, single point].
For COc1ccc(-c2cn[nH]c2-c2ccc(OCc3ccc(F)cc3)cc2O)cc1OC, the Potency was active: 18.4 µM.
For CC(C)(C)c1ccc(CN2C3=NCCCN3c3ccccc32)cc1, the Potency was active: 23.1 µM.
In the case of CC(C)(C)c1cc(C(=O)N2CCc3ccccc32)ccn1, the Potency is reported as inconclusive [cytotoxic, single point].
With CCCN(CCC)Cc1c(C(=O)N/N=C/c2c[nH]c3ccccc23)nnn1-c1nonc1N the Potency was active: 29.1 µM.
With CCOC(=O)C1CCN(C(=O)CSC2=NCCS2)CC1 the Potency was “inactive”.
With Cc1c(C(=O)NCCSCc2cccc(C(F)(F)F)c2)cnn1-c1ccc(Cl)cc1 the Potency was inconclusive [cytotoxic, single point].
For O=S(=O)(c1cccc(C(F)(F)F)c1)N1CCCC1c1cccnc1 (configuration not stated), the Potency was “inactive”.
With CN(CC1CCCN(CCc2ccc(Cl)cc2)C1)C(=O)C(=O)c1ccco1 (configuration not stated) the Potency was “inactive”.
In the case of Cc1ccc(S(=O)(=O)N2C[C@H]3N(C(=O)OC(C)C)N(C(=O)OC(C)C)C[C@H](OC(=O)NCC4CCCCC4)[C@@]3(O)C2)cc1, the Potency is reported as inconclusive [cytotoxic, single point].
In the case of Cc1cccc(Cl)c1OCCCCn1ccnc1, the Potency is reported as inconclusive [cytotoxic, single point].
For CCOC(=O)N1CC(=O)Nc2ccc(Br)cc2C1c1ccccc1 (configuration not stated), the Potency was “inactive”.
With COC(=O)[C@]12CCCCC=C1N(CCc1ccc(OC)c(OC)c1)C(=O)[C@H](CC(=O)NCc1cccc(C(F)(F)F)c1)C2 the Potency was inconclusive [cytotoxic, single point].
For C=CCN(C(=O)C1=NN(C2CCS(=O)(=O)C2)C(=O)CC1)c1nc(-c2ccc([N+](=O)[O-])cc2)cs1 (configuration not stated), the Potency was “inactive”.
In the case of CCOc1ccc(C(NC(=O)/C=C/c2ccco2)c2ccc(OC)c(OC)c2)cc1 (configuration not stated), the Potency is reported as “inactive”.
In the case of COc1ccc(CCNC(=O)c2cc3c(=O)n4cccc(C)c4nc3n(CC3CCCO3)c2=N)cc1 (configuration not stated), the Potency is reported as “inactive”.
For O=C(NC(=S)Nc1ccccc1N1CCCC1)c1ccc(-c2cccc([N+](=O)[O-])c2)o1, the Potency was inconclusive [cytotoxic, single point].
For CCCCNC(=O)CS(=O)Cc1nc(-c2cccc(C)c2)oc1C (configuration not stated), the Potency was “inactive”.
In the case of Cc1ccc(O)c(C2=Nc3ccccc3N=C(c3ccco3)C2)c1, the Potency is reported as inconclusive [cytotoxic, partial curve, poor fit].
With CCc1nnc(N2C(=N)SCC2=O)s1 the Potency was “inactive”.
For ClCc1nnc(-c2ccccc2)o1, the Potency was “inactive”.
In the case of O=C(CCl)N=c1sccn1Cc1ccc(Cl)cc1Cl, the Potency is reported as active: 3.26 µM.
